From paper PMC4336329 (PLoS ONE, 2015)
Screen size: about 310,000 compounds; about 2,200 (0.71%) showed an effect of 50% or more. The effect is printed as a negative number. This is one part of the list.

target: human ether-à-go-go-related gene (hERG) potassium channel (human, UniProt Q12809); assay: primary screen, population patch clamp on CHO cells stably expressing hERG
Sequence (Q12809 whole entry, looked up): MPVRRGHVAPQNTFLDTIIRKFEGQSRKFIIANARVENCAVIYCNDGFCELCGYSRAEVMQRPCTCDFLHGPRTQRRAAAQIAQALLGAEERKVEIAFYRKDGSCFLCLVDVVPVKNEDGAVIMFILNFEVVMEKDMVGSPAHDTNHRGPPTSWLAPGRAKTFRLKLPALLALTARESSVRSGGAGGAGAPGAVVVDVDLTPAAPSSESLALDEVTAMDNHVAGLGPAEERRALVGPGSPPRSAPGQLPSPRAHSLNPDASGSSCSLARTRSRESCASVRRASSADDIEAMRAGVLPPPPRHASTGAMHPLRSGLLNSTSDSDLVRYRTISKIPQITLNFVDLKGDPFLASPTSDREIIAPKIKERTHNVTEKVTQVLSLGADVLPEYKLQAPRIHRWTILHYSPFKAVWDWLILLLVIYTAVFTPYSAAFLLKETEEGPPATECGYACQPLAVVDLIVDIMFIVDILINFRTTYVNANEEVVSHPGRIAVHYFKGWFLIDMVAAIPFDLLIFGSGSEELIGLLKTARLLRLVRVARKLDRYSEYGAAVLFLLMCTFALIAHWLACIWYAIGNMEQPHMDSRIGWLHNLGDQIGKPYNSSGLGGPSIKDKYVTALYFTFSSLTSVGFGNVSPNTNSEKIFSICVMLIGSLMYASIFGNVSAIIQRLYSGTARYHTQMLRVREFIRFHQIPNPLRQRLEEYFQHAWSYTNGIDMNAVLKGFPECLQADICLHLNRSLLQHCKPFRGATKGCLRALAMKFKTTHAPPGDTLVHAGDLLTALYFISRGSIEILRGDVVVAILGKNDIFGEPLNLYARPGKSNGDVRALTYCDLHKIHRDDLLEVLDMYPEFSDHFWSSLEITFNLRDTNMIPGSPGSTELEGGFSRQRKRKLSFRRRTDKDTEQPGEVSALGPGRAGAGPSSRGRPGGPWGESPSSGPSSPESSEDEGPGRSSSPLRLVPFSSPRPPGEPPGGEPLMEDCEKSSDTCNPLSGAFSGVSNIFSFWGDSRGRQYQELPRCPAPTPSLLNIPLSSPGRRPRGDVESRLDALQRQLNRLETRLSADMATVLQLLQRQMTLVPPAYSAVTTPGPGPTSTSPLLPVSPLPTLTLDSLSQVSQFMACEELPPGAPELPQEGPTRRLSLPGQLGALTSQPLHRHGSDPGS

| SMILES | hERG current change (%, negative = inhibition) at 1uM [%] |
| --- | --- |
| O=C(NNS(=O)(=O)c1ccccc1)c1cnn(-c2ccccc2)c1-n1cccc1 | 9.1 |
| O=C(CCC(=O)NNC(=O)COc1ccc(Br)cc1Br)NCc1ccccc1 | 16.6 |
| Nc1cc(Cl)ccc1Oc1ccccc1 | -9.39 |
| Oc1ccc(-c2nccc(-c3cccs3)n2)cc1 | -0.406 |
| CNC(=O)NC(=O)COc1c(F)c(F)cc(F)c1F | 12.1 |
| CNc1ccc([N+](=O)[O-])cc1 | 9.7 |
| CCc1nnc(NC(=O)c2ccc(Cl)c(S(=O)(=O)N3CCc4ccccc43)c2)s1 | 10 |
| O=C(O)c1c[nH]c2ccc(F)cc2c1=O | 13.4 |
| COc1ccc(C(=O)NCCCc2ccccc2)cc1 | 7.99 |
| O=C(NCCCN1CCOCC1)c1ccc2c(c1)N(Cc1ccccc1F)C(=O)c1ccccc1S2=O (stereo not drawn) | 12.2 |
| O=C(CCCCCn1c(=S)[nH]c2ccc(Br)cc2c1=O)NCC1CCCO1 (stereo not drawn) | 6.36 |
| CC1Sc2ccc(S(=O)(=O)N3CCC(C(=O)Nc4cccc(Cl)c4)CC3)cc2NC1=O (stereo not drawn) | 11.1 |
| CC(C)CCN1CCN(Cc2cnc(N3CCCC3)s2)CC1CCO (stereo not drawn) | 10.3 |
| O=C(Nc1ccccc1)OC1CCCCc2cccnc21 (stereo not drawn) | 15.4 |
| CC(C)CN(CC(C)C)c1nnc(NC(=O)Cn2c(=O)oc3ccccc32)s1 | 10.6 |
| CC1CCN(C(=O)COc2ncnc3ccccc23)CC1 | 4.83 |
| O=C(NNC(=S)Nc1ccc(Cl)cc1)c1ccccc1 | 16.1 |
| O=C(Nc1ccccc1N1CCCC1)c1cccc(S(=O)(=O)N2CCOCC2)c1 | 3.82 |
| Cc1ccc2cc(C#N)c(SCC(=O)N3CCCC3)nc2c1 | 0.7 |
| CCN(CC(=O)Nc1ccc2c(c1)OCCO2)Cc1cc(=O)oc2cc(C)c(C)cc12 | 10 |
| COC(=O)c1cc2n(n1)CCN(Cc1ccc(C)cc1)C2=O | -7.11 |
| CN(C)Cc1c(O)ccc2occ(C(O)c3ccccc3)c12 (stereo not drawn) | 10.8 |
| CCOc1ccc(-c2ccc(/C=C3/C(=N)N4C=CSC4=NC3=O)o2)c([N+](=O)[O-])c1 | 7.31 |

| SMILES | hERG current change (%, negative = inhibition) at 1uM [%] |
| --- | --- |
| COc1ccc(CC(=O)N/N=C/c2cc(Br)cs2)cc1OC | 15.8 |
| CCOC(=O)Cn1nnnc1CN(Cc1ccc(OC)cc1)Cc1cc2cc(C)ccc2[nH]c1=O | 12.4 |
| COCCCn1c(=O)c2ccccc2n(Cc2cc(C(=O)OC)ccc2OC)c1=O | 15.7 |
| CC(C)[C@H](NC(=O)N1CCn2c1nc1ccccc12)C(=O)N[C@@H](C(=O)O)c1ccccc1 | 12.6 |
| O=C(Nc1ccc(N2CCOCC2)nc1N1CCOCC1)c1cccc(C(F)(F)F)c1 | 10.4 |
| Cc1cc(NC(=O)CSc2nc(=O)cc(N)n2-c2ccc(F)cc2)no1 | 3.33 |
| CCN1CCN(CC(=O)N/N=C/c2cc(Br)cs2)CC1 | -1.01 |
| Cc1ccc(S(=O)(=O)N2CCCCC2)cc1C(=O)Nc1cccnc1 | -2.14 |
| O=C(O)CC(NC(=O)C(c1ccccc1)c1ccccc1)c1ccc(F)cc1 (stereo not drawn) | 12 |
| O=C(CCCc1nc2ccccc2s1)Nc1nccs1 | 7.26 |
| Cc1coc2c(C)c3oc(=O)c(CCC(=O)NCCN4CCOCC4)c(C)c3cc12 | -1.1 |
| Nc1nc(N)c2c(n1)CCCC2 | 7.52 |
| COc1ccc(C2NCCc3c2[nH]c2ccccc32)cc1CSc1nc2ccccc2s1.Cl (stereo not drawn) | 12.1 |
| CN1CCC(N(C)CC(O)c2ccccc2)CC1.O=C(O)C(=O)O (stereo not drawn) | 1.81 |
| COc1ccc(S(=O)(=O)N2CCCCC2)cc1NC(=O)c1ccc(CS(C)(=O)=O)cc1 | 8.92 |
| CCCC(=O)N(Cc1cc(=O)[nH]c2ccccc12)c1cccc(C)c1 | 13.7 |
| OC(Cn1cncn1)(Cn1cncn1)c1ccc(F)cc1F | 15.4 |
| CCOC(=O)c1ccc(NC(=O)NC2CC3CCC(C2)N3)cc1 (stereo not drawn) | 13.3 |
| O=C(c1cccc(C(F)(F)F)c1)N1CCC(=O)N(C(CO)Cc2ccccc2)CC1 (stereo not drawn) | 16.7 |
| Cc1ccc(CN2CCN(Cc3ccc(OCCO)cc3)CC2CCO)o1 (stereo not drawn) | 1.83 |
| C#CCOC(=O)CCCC(=O)NCCCCCCCC | 9.82 |
| Cc1ccccc1CSCC(=O)Nc1c(C)n(C)n(-c2ccccc2)c1=O | -3.37 |
| CCOC(=O)/C(C#N)=C/N1CCOCC1 | 5.79 |

| SMILES | hERG current change (%, negative = inhibition) at 1uM [%] |
| --- | --- |
| Cc1cc(S(=O)(=O)N2CCCC2)ccc1OCC(=O)Nc1ccc(C(N)=O)cc1 | 13.4 |
| O=C(NCc1ccc(F)cc1)c1cnc2sccn2c1=O | 6.24 |
| COCCn1c(C)cc(C2=NNC(=Nc3ccc(F)cc3)SC2)c1C | 3.67 |
| CCN(CC)S(=O)(=O)c1ccc(OC)c(N)c1 | 12.2 |
| CCN(C(=O)COC(=O)c1[nH]c(C)c(C(C)=O)c1C)c1c(N)n(Cc2ccccc2)c(=O)[nH]c1=O | 5.07 |
| COc1ccc(CCNC(=O)c2cnccn2)cc1 | 14.9 |
| COc1ccc(C(=O)N/C(=C/c2ccco2)C(=O)N2CCCCCC2)cc1 | 11.5 |
| Cc1csc(=Nc2cccnc2)n1Cc1ccco1 | 8.97 |
| CCN1C(=O)/C(=C\N2CCCc3ccccc32)SC1=S | 13.4 |
| CC(C)[C@@H](C(=O)N1CCN(C(=O)OC(C)(C)C)CC1)n1cc(CCO)nn1 | 14.7 |
| CC1=NN(c2nc3ccccc3[nH]2)C(=O)/C1=C/N(C)C | -8.98 |
| O=C(Nc1ccccc1)O/N=C1/CCCc2occc21 | 13.3 |
| CS(=O)(=O)c1cnc(-c2ccccc2)nc1-c1ccccc1Cl | 7.74 |
| COc1ccc(-n2c(SCC(=O)Nc3nc(C)cs3)nnc2-c2ccoc2C)cc1 | -85 |
| COc1cc(CCN2C(=O)c3cccc4cccc(c34)C2=O)c(S(=O)(=O)NCCCO)cc1OC | 11.7 |
| Cc1nn(C)c(C)c1CNC(=O)Nc1ccc2c(c1)OCO2 | 2.79 |
| Cc1cc(SCC(=O)NC2CCCC2)nc2ccccc12 | 4.22 |
| CCC(C(=O)OC)n1cnc2c(nnn2-c2cccc(Cl)c2)c1=O (stereo not drawn) | 5.53 |
| CCC(=O)N1CCc2cc(S(=O)(=O)NCCC(=O)N3CCN(Cc4ccccc4)CC3)ccc21 | -1.95 |
| COC(=O)c1cc(NC(=O)CSc2nnc(CN3CCOCC3)n2C)ccc1Cl | 7.43 |
| O=C(CSc1nc2c(sc3ccccc32)c(=O)n1CCCN1CCCC1)NCc1ccco1 | -70.1 |
| CCCc1nc2ccccc2c(C(=O)OCC(=O)Nc2ccc(S(=O)(=O)N3CCOCC3)cc2)c1CC | 15.9 |
| Cc1ccc(NC(=O)N2CCCC2C(=O)NCc2cccs2)cc1 (stereo not drawn) | 2.72 |

| SMILES | hERG current change (%, negative = inhibition) at 1uM [%] |
| --- | --- |
| COCCOc1ccc(C(F)(F)F)cc1NC(=O)c1ccc(C)cc1 | 7.05 |
| CC(=O)c1cccc(N=C2NC(=O)CS2)c1 | 13.8 |
| COC(=O)/C(=N/Nc1ccccc1OC)N1CCCc2ccccc21 | 7.32 |
| CCCCNC(=O)COC(=O)c1ccc(N(C)C)cc1 | 11.6 |
| O=C(CN1C(=O)S/C(=C/c2ccc(N3CCOCC3)cc2)C1=O)N1CCOCC1 | -0.132 |
| Cc1ccc(/C=C2/SC(=O)N(CC(=O)N3CCOCC3)C2=O)s1 | 0.684 |
| CCC(C)N1CNc2c(c(=O)[nH]c(=S)n2-c2cccc(C)c2)C1 (stereo not drawn) | 2.81 |
| Nc1nc(CCl)nc(N(c2ccccc2)c2ccccc2)n1 | 11.4 |
| CC1(c2ccccc2)ON(c2ccccc2C(F)(F)F)C1=O (stereo not drawn) | 7.04 |
| CN1CCC(N2CC3CC(C2)c2cccc(=O)n2C3)CC1 (stereo not drawn) | -5.91 |
| Cc1cnc(NC(=O)CSc2nnc(C)s2)s1 | 16.9 |
| COc1ccc(C2NC(=O)NC(O)(C(F)(F)F)C2C(=O)c2ccccc2)cc1OC (stereo not drawn) | -7.26 |
| COc1cc2c(cc1NS(=O)(=O)N1CCCC1)oc1ccccc12 | -2.96 |
| O=C(O)CCC(=O)c1cccc2ccccc12 | 10.3 |
| CN(C)S(=O)(=O)N1CCC(CCCC2CCN(S(=O)(=O)N(C)C)CC2)CC1 | 6 |
| COc1ccc(Cl)cc1NC(=O)COC(=O)CCCN1C(=O)c2ccccc2C1=O | 12.6 |
| Cc1ccc(Cl)c(NC(=O)COC(=O)c2nn(C)c(=O)c3ccccc23)c1Cl | 9.96 |
| O=C(Oc1cccc2c(OC(=O)N3CCCC3)cccc12)N1CCCC1 | -24 |
| O=C(O)Cc1cn(-c2ccccc2)nc1-c1ccccc1 | 8.68 |
| CCCc1cc(=O)oc2cc(C)cc(OC(C)C(=O)NCCN3CCOCC3)c12 (stereo not drawn) | 3.73 |
| O=C(CSc1nnc2c(n1)[nH]c1ccccc12)Nc1cccc(S(=O)(=O)N2CCOCC2)c1 | 8.47 |
